# Experimental data: paper PMC9940316 (2023)
# B1: FcγRIIIA wild type protein (receptor)
# chain: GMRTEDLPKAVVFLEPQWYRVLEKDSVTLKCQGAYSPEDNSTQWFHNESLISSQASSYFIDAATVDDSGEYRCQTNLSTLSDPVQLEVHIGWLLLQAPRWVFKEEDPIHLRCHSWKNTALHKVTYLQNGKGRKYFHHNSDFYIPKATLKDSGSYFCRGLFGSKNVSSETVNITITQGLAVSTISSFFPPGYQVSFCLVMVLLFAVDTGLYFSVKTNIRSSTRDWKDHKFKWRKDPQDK
# Biological target: human plasma IgG1 (human, UniProt P01857 = IgG part)
# Assay: SPR
binder,measurement,value
B1,Kd,1900 nM
